# Assay results taken from PubChem BioAssay AID488969 (Vanderbilt High Throughput Screening Facility, 2010).
# Over roughly 110,000 compounds, “z-score” has its median near -0.1; the highest 2% begin near 2. This is one part of the list.
# Molecular target: Metabotropic glutamate receptor 8 (Rattus norvegicus) (UniProt P70579)
# Experiment: rat mGluR8 modulators via GIRK flux, primary screen, cell-based, thallium flux, HTS (AID 488969)
# Conditions: HEK293 rat mGluR8, GIRK (G protein-gated inwardly rectifying potassium channel) thallium flux, FluoZin2; at 10 µM; stronger effect = higher value; submaximal glutamate (EC20) added with thallium
# UniProt P70579, sequence (P70579 whole entry, looked up): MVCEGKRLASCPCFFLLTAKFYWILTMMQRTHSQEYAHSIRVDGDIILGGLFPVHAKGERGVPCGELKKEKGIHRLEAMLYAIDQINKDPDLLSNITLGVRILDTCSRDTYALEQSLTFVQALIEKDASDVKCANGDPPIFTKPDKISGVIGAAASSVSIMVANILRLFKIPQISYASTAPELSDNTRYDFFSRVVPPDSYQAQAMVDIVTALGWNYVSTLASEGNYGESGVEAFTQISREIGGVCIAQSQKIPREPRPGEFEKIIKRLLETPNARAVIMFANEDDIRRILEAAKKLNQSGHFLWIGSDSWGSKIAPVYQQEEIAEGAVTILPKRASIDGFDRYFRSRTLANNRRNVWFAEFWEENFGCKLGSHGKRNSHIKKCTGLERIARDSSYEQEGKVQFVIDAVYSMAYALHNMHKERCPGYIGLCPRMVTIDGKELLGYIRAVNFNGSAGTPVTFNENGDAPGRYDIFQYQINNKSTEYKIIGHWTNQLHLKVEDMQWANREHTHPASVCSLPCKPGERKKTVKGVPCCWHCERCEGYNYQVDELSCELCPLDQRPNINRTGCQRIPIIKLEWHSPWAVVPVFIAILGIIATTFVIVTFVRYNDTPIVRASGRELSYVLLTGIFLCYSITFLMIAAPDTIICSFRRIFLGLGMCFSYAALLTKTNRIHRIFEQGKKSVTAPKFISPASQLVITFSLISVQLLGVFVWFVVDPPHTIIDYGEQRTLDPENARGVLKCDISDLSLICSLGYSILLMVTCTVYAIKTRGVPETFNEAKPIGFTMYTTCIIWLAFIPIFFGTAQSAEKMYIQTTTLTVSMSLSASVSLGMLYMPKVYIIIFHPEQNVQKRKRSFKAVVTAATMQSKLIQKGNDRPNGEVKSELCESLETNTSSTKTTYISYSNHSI
row,SMILES,z-score
1,O=C(Nc1cccc(Cn2cccn2)c1)c1cc2c(s1)CCCC2,-0.413
2,Cn1cc(C(=O)N/N=C/C2=C(N3CCOCC3)C(=C\c3ccccc3)/CC2)ccc1=O,-0.485
3,CC(C)(C)c1ccc(C(=O)N2CCN(CCNC(=O)C(=O)NCc3ccccc3)CC2)cc1,-0.158
4,O=C(NNc1cccc(Cl)n1)Nc1ccccc1,0.335
5,Cc1ccccc1C(=O)NC(=S)NCCN1CCOCC1,-0.215
6,COC(=O)N/N=C/c1c(C)c(C(=O)c2ccc(F)cc2)n2ccccc12,-0.428
7,CC(C)(C)Cc1nc(-c2ccc(Cl)cc2)no1,0.892
8,O=C(COC(=O)[C@H](Cc1c[nH]c2ccccc12)NC(=O)c1ccc(Cl)cc1)Nc1ccc2c(c1)OCO2,0.558
9,CCOC(=O)c1ccc(NC(=O)CNC(=O)C23CC4CC(CC(C4)C2)C3)cc1,0.204
10,COc1ccc(OC)c(/C=C/C(=O)N2C(=O)c3cccc(N)c3C2=O)c1,0.359
11,CN(C)c1ccc(NC(=O)Nc2cccc(Cl)c2)cc1,-0.185
12,CCN(CC)S(=O)(=O)c1ccc(NC(=O)c2cc(-c3ccccc3)nc3ccccc23)cc1,-0.15
13,C=C(C)C1CC=C(C)/C(=N\NC(=S)Nc2ccc(C)cc2)C1 (stereo unspecified),0.799
14,Cc1cc(NC(=O)CSc2c3c(nc4ccccc24)CCC3)no1,-0.266
15,CC(O/N=C\c1ccccc1O)C(=O)Nc1ccccc1C(=O)N1CCOCC1 (stereo unspecified),-0.13
16,Cc1cc(Cl)ccc1NC(=S)N1CCOCC1,-0.185
17,CC(C)(C)c1cc(NC(=O)CSc2nnc(N)s2)n(-c2ccccc2)n1,-0.234
18,O=C(O)CNC(=O)c1ccccc1F,0.194
19,Cc1cc(C)c(O)c(-c2cc(C(=O)NCc3ccccc3)[nH]n2)c1,-0.0726
20,Cc1cccc(Nc2nc(NCC3CCCO3)nc(N)c2[N+](=O)[O-])c1 (stereo unspecified),-0.309
21,CCOc1ccc(N(CC(=O)Nc2ccc3c(c2)OCCO3)S(=O)(=O)c2c(C)noc2C)cc1,0.0859
22,O=C(COC(=O)c1ccc(-c2ccc([N+](=O)[O-])cc2)o1)NC(=O)NC1CCCCC1,-0.324
23,O=C(NCc1ccco1)C(c1ccccc1)N(Cc1ccccc1)C(=O)Cn1nnc2ccccc21 (stereo unspecified),0.0768
24,Cn1c(CN2CCCC2)nc2cc(NS(=O)(=O)c3ccc(Cl)cc3)ccc21,-0.015

row,SMILES,z-score
1,COC(=O)Cc1ccc(NC(=S)NCc2ccc(Cl)cc2)cc1,-0.427
2,Cc1ccccc1/C=C/c1nc2ccccc2c(=O)n1CCc1ccccc1,-0.318
3,Cc1ccc(C)c2[nH]c(=O)c(CCNC(=O)c3ccc(Br)o3)cc12,-0.0291
4,CC(C)c1nc2oc3c(NCC4CCCO4)ncnc3c2c2c1COC(C)(C)C2 (stereo unspecified),-0.711
5,CC(=O)c1cccc(N=C2NC(=O)C(CO)(CO)S2)c1,-0.0146
6,COc1ccc(CCNC(=O)Cn2nc([N+](=O)[O-])c(Br)c2C)cc1OC,-0.251
7,COc1cccc(C(=O)Nc2ccc(NC(=O)C3CC3)cn2)c1,-0.97
8,Cc1c(CCOC(=O)CC23CC4CC(CC(C4)C2)C3)sc[n+]1CC(=O)c1ccc(Br)cc1,0.0917
9,CCOC(=O)c1ccccc1NC(=O)CSc1nc2ccccc2n1CC(=O)N1CCCC1,-0.472
10,CC(=O)c1cc(OC(=O)N2CCOCC2)ccc1OC(=O)N1CCOCC1,-0.376
11,COc1ccc(C2=NNC(=O)CC2)cc1,-0.018
12,CSc1nc2ccccc2c(=O)n1N,0.226
13,CN(C)C(CNC(=O)CCCOc1ccccc1)c1ccco1 (stereo unspecified),0.0291
14,COC(Cn1c(C)c(C(C)=O)c(C(C)=O)c1C)OC,-0.0274
15,O=S(=O)(c1ccc(Cl)cc1)n1ccc(-c2cccc(OCc3c(F)cccc3Cl)c2)n1,-0.155
16,O=C(c1cccs1)N1CCC2(O)CCCCC2C1c1ccc(F)cc1 (stereo unspecified),0.0895
17,CCc1nnc(NC(=O)c2ccc(S(=O)(=O)N3CCCc4ccccc43)cc2)o1,0.372
18,CCCn1c(SC(C)C(=O)O)nc2ccccc21 (stereo unspecified),-0.579
19,N#CSCC(=O)c1cccc2ccccc12,1.08
20,CN1CCN(C(=O)C2CC(=O)N(c3ccc(F)c(Cl)c3)C2)CC1 (stereo unspecified),-0.219
21,O=C(Nc1ccc(Cl)cc1)C1C2CCC3C(CCC21)C3(Cl)Cl (stereo unspecified),-0.136
22,COc1ccc(/C=C2\COc3ccccc3C2=O)cc1OC,-0.0225
23,COc1cc(OC)cc(C(=O)NCC(=O)OCc2csc(-c3ccccc3)n2)c1,-0.33
24,COC(=O)\C(C(C)=O)=C(/C=C/C=C/N(C)C)N(C)C,-0.286

row,SMILES,z-score
1,CCc1cc2c(SCC(=O)O)ncnc2s1,-0.293
2,CCC(=O)Nc1ccc(C(=O)N/N=C/c2ccccc2[N+](=O)[O-])cc1,-0.12
3,OC(CN1CCOCC1)CN1CCOCC1,0.593
4,Cn1c(=O)c2c(nc(Oc3ccccc3)n2C)n(C)c1=O,-0.175
5,CCCCn1c(O)c(/C=C2\C=NN=C2c2ccccc2)sc1=S,0.0136
6,CCOc1ccc2nc(NC(=O)Cc3cccs3)sc2c1,-0.235
7,COc1ccc(Cl)cc1C(=O)Nc1ccc(N(C)C(C)=O)cc1,0.083
8,CSCCC(NS(=O)(=O)c1ccc2ccccc2c1)C(=O)O (stereo unspecified),1.51
9,Cc1ccc(SCC(=O)Nc2ccc(S(=O)(=O)Nc3nccs3)cc2)cc1,0.625
10,CC(C)Cc1nc(Cl)c(C#N)c2c1CCCC2,-0.271
11,CCOC(=O)C1=C(C)NC2=C(C(=O)CCC2)C1c1cccs1 (stereo unspecified),-0.55
12,Cc1cccc(C(=O)N2CCC(c3nc(-c4ccc(S(=O)(=O)N5CCOCC5)cc4)no3)CC2)c1,-0.323
13,O=C(Nc1ccc2c(c1)nc1n2CCN(C2CCCCC2)C1)NC1CCCCC1,-0.198
14,COc1ccc(CNC(=O)CCn2cccc2)cc1,0.242
15,O=C(Nc1ccccc1N1CCCC1)c1cccnc1,-0.262
16,O=C(Nc1c(-c2ccccc2)nc2ccccn12)c1cccs1,-0.239
17,C/C(=N\NC(=O)c1ccc(O)cc1)c1ccc2c(c1)Nc1ccccc1S2,0.00996
18,COc1ccc(/C=C2\SC(=O)N=C2N)cc1OC,0.0136
19,O=C(CCCOc1ccc(Cl)cc1Cl)N1CCc2ccccc2C1,-0.129
20,O=C(CCCc1ccccc1)N1CCc2ccccc21,-0.217
21,O=C(Nc1ccc(-c2nc3ccccc3[nH]2)cc1)C1CCCO1 (stereo unspecified),-0.398
22,CC(C)NC(=O)c1ccc(C2SCC(=O)N2Cc2ccccc2)cc1 (stereo unspecified),-0.906
23,Cc1ccc([N+](=O)[O-])cc1-c1ccc(/C=C(\C#N)c2[nH]nc(N)c2C#N)o1,-0.0051
